From the supplement of paper PMC12067230
Single values of this set are uncertain.

assay: amyloid nucleation score relative to library mode (yeast Sup35 reporter selection) (log enrichment difference); higher = more amyloid nucleation; sequences are the first 22 residues of the Bri2 peptide extended by up to 12 random residues; details: random library (experiment): 1;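 active = nucleation score significantly above 0 at FDR 0.05; inactive = not significantly above 0 or absent from output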
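Further: [psi-pin-] Saccharomyces cerevisiae expressing SupN fusions, induced by 100 µM Cu2SO4, selected 7 d at 30 °C without adenine and uracil, scored by deep sequencing of output versus input.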

Sequence	amyloid nucleation score
EASNCFAIRHFENKFAVETLICVADGC	-0.469
EASNCFAIRHFENKFAVETLICVAEGGADSGRR	inactive
EASNCFAIRHFENKFAVETLICVAESSPWTTLCA	inactive
EASNCFAIRHFENKFAVETLICVAGDKRRMQWPG	inactive
EASNCFAIRHFENKFAVETLICVAGVERLDGGDA	inactive
EASNCFAIRHFENKFAVETLICVAHKSTPCCGVP	inactive
EASNCFAIRHFENKFAVETLICVAHTGHLVGRVW	inactive
EASNCFAIRHFENKFAVETLICVAHTHYPRLRGW	inactive
EASNCFAIRHFENKFAVETLICVAINWREYLRGS	3.57
EASNCFAIRHFENKFAVETLICVAIRAPADWLMC	4.87
EASNCFAIRHFENKFAVETLICVAKLSLMDAPCR	inactive
EASNCFAIRHFENKFAVETLICVALAFSADVSGA	inactive
EASNCFAIRHFENKFAVETLICVALDSEKERRKW	3.31
EASNCFAIRHFENKFAVETLICVALEHLNVSRLG	4.75
EASNCFAIRHFENKFAVETLICVALRGPGTWNAA	inactive
EASNCFAIRHFENKFAVETLICVALRTLRLIHPH	inactive
EASNCFAIRHFENKFAVETLICVALRYPR	inactive
EASNCFAIRHFENKFAVETLICVALYKEQRKTRE	inactive
EASNCFAIRHFENKFAVETLICVALYSLAVMAPA	inactive
EASNCFAIRHFENKFAVETLICVANMIKLCCVHR	inactive
EASNCFAIRHFENKFAVETLICVANVAKLLGRGY	inactive
EASNCFAIRHFENKFAVETLICVAPGGSGCRPAW	inactive

Sequence	amyloid nucleation score
EASNCFAIRHFENKFAVETLICVAPVHTSCSSMV	inactive
EASNCFAIRHFENKFAVETLICVAQLKEAWSHKH	2.99
EASNCFAIRHFENKFAVETLICVARAVQGPNTWG	inactive
EASNCFAIRHFENKFAVETLICVARNAPTVRRVR	inactive
EASNCFAIRHFENKFAVETLICVARQKAVNGRTN	inactive
EASNCFAIRHFENKFAVETLICVARRAE	inactive
EASNCFAIRHFENKFAVETLICVARSRGEKPLGC	inactive
EASNCFAIRHFENKFAVETLICVASMEWLNWLVL	inactive
EASNCFAIRHFENKFAVETLICVASPPLYWVEMD	inactive
EASNCFAIRHFENKFAVETLICVASRSLRGFMCR	inactive
EASNCFAIRHFENKFAVETLICVASSACGLMCP	inactive
EASNCFAIRHFENKFAVETLICVASTHGWMYMRC	inactive
EASNCFAIRHFENKFAVETLICVASTSSTLNSVS	inactive
EASNCFAIRHFENKFAVETLICVATFAVSVVYAG	inactive
EASNCFAIRHFENKFAVETLICVATFICC	inactive
EASNCFAIRHFENKFAVETLICVAV	inactive
EASNCFAIRHFENKFAVETLICVAVPKSSGQTAL	inactive
EASNCFAIRHFENKFAVETLICVAVPRHGPDVAG	inactive
EASNCFAIRHFENKFAVETLICVAVPSWGVGRPV	inactive
EASNCFAIRHFENKFAVETLICVAVVSALPEGT	0.903
EASNCFAIRHFENKFAVETLICVAYVWRSAGLGT	0.04
EASNCFAIRHFENKFAVETLICVC	inactive

Sequence	amyloid nucleation score
EASNCFAIRHFENKFAVETLICVCALECVRKWCL	inactive
EASNCFAIRHFENKFAVETLICVCAYLRLFHAGC	inactive
EASNCFAIRHFENKFAVETLICVCEEPSVDLCFG	inactive
EASNCFAIRHFENKFAVETLICVCELGGPDFPLR	inactive
EASNCFAIRHFENKFAVETLICVCFNGSSTHYPT	8.87
EASNCFAIRHFENKFAVETLICVCFS	7.71
EASNCFAIRHFENKFAVETLICVCGAPEGTAASC	inactive
EASNCFAIRHFENKFAVETLICVCGCMESARVP	5.57
EASNCFAIRHFENKFAVETLICVCGGTSTSFIGR	8.08
EASNCFAIRHFENKFAVETLICVCGRTSCSDSLL	inactive
EASNCFAIRHFENKFAVETLICVCGVRVSVSELR	inactive
EASNCFAIRHFENKFAVETLICVCHSVRMASAPR	2.7
EASNCFAIRHFENKFAVETLICVCILRC	4.15
EASNCFAIRHFENKFAVETLICVCIVPHTSSVKR	4.52
EASNCFAIRHFENKFAVETLICVCKECSTVSPG	inactive
EASNCFAIRHFENKFAVETLICVCKGPRPYSC	3.46
EASNCFAIRHFENKFAVETLICVCLDGR	7.76
EASNCFAIRHFENKFAVETLICVCLVWGR	inactive
EASNCFAIRHFENKFAVETLICVCLWNVIGTTSR	5.3
EASNCFAIRHFENKFAVETLICVCMI	4.68

same assay, conditions: random library (experiment): 2

Sequence	amyloid nucleation score
EASNCFAIRHFENKFAVETLICVAEGHQYFCMHA	7.09
EASNCFAIRHFENKFAVETLICVAFRNRWDYYPL	0.916
EASNCFAIRHFENKFAVETLICVAFYSSTNRKVS	inactive
EASNCFAIRHFENKFAVETLICVAGQKCYFFPVK	inactive
EASNCFAIRHFENKFAVETLICVALLICLWSLLV	5.01
EASNCFAIRHFENKFAVETLICVARRKMRRLIHI	0.393
EASNCFAIRHFENKFAVETLICVATYIVSMLYMR	inactive
EASNCFAIRHFENKFAVETLICVAWG	inactive
EASNCFAIRHFENKFAVETLICVAWQSWEMRAVS	3.22
EASNCFAIRHFENKFAVETLICVAYCCIKARSVT	3.78
EASNCFAIRHFENKFAVETLICVCCHGIYWYDCG	4.65
EASNCFAIRHFENKFAVETLICVCCIYFFVYGFR	6.41
EASNCFAIRHFENKFAVETLICVCCKAERTVNRE	6.13
EASNCFAIRHFENKFAVETLICVCDCPLNRCKKN	8.25
EASNCFAIRHFENKFAVETLICVCDCRYCCTLLL	1.26
EASNCFAIRHFENKFAVETLICVCDKYNYSTLWI	inactive
EASNCFAIRHFENKFAVETLICVCDNKPSTQCAI	4.93
EASNCFAIRHFENKFAVETLICVCFRLFERWSRK	inactive
EASNCFAIRHFENKFAVETLICVCHSLMD	6.06
EASNCFAIRHFENKFAVETLICVCIVCSPTSLL	0.813
EASNCFAIRHFENKFAVETLICVCIYRNSKRWDM	2.71
EASNCFAIRHFENKFAVETLICVCKVSIT	4.03
EASNCFAIRHFENKFAVETLICVCLRSSSMVCWC	inactive
EASNCFAIRHFENKFAVETLICVCLRWVSVASST	0.777

same assay, conditions: random library (experiment): 3

Sequence	amyloid nucleation score
EASNCFAIRHFENKFAVETLICVADLRRRGLRRS	3.93
EASNCFAIRHFENKFAVETLICVADMRGPSGGVW	inactive
EASNCFAIRHFENKFAVETLICVAFGMTQCAKYS	2.75
EASNCFAIRHFENKFAVETLICVAFTTTLSDGEG	inactive
EASNCFAIRHFENKFAVETLICVAGKVGRQPRWE	inactive
EASNCFAIRHFENKFAVETLICVAKREPWSPKWG	inactive
EASNCFAIRHFENKFAVETLICVALTSGRVADRG	inactive
EASNCFAIRHFENKFAVETLICVAMRVKE	inactive
EASNCFAIRHFENKFAVETLICVAPRDAFWSVLE	inactive
EASNCFAIRHFENKFAVETLICVAPVY	inactive
EASNCFAIRHFENKFAVETLICVAQCGGFMGLVC	inactive
EASNCFAIRHFENKFAVETLICVARDRGSPLALW	inactive
EASNCFAIRHFENKFAVETLICVARMEHRLGFWR	inactive
EASNCFAIRHFENKFAVETLICVARSMMRYPRFS	inactive
EASNCFAIRHFENKFAVETLICVASCH	inactive
EASNCFAIRHFENKFAVETLICVASRSPD	inactive
EASNCFAIRHFENKFAVETLICVATYCVDQLTVA	inactive
EASNCFAIRHFENKFAVETLICVAVC	inactive
EASNCFAIRHFENKFAVETLICVAVERSSVSGLE	inactive
EASNCFAIRHFENKFAVETLICVAVGCSCRLKRM	inactive
EASNCFAIRHFENKFAVETLICVAVQSSQMGSFV	inactive
EASNCFAIRHFENKFAVETLICVAVSFRGSWDVS	inactive
EASNCFAIRHFENKFAVETLICVCCRNRMYRRVQ	4.36
EASNCFAIRHFENKFAVETLICVCCVMSTEEGLV	8.93
EASNCFAIRHFENKFAVETLICVCFIQA	1.28
EASNCFAIRHFENKFAVETLICVCGSSLVPRDRG	7.72
EASNCFAIRHFENKFAVETLICVCKDSIRVVGWI	inactive
EASNCFAIRHFENKFAVETLICVCLCAMMSGSGM	6.04
EASNCFAIRHFENKFAVETLICVCLFLR	6.54
EASNCFAIRHFENKFAVETLICVCLMFLLRVSYR	inactive
